# From the supplement of paper PMC8728848
# The list shows a part of the results.
# B1: BC2LB (Burholderia cenocepacia), B4EH85_BURCJ (protein)
# chain: MGSSHHHHHHSSGENLYFQGHMSQPFTHDDLYALLQLAGNDATAVQANGDQAVLDRMRQFMTAQLVEKLPQYDVFVDIATIPYSFDVGSWQNKVKTDAAGEVVACTVTWAGAPGVLPGAAAKFGVGAVVNYFSKATPH
# Columns and labels:
# Experiment in all cases: glycan array binding signal (z-score within array); higher = stronger binding
# Conditions in all cases: glycan notation: IUPAC condensed, linker removed
# [1] = target: Neu5Ac(a2-3)Gal(b1-3)]Neu5Ac(a2-3)Gal(b1-4)]GlcNAc
# In short: (§1)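 Glycan array data were curated from 3228 arrays in the Consortium for Functional Glycomics database and kept only where the protein sequence was available. Glycan names were converted to IUPAC-condensed notation, and columns mapping to the same glycan were averaged. The binding signal is a within-array Z-score, averaged across arrays of the same protein sequence at different concentrations or buffers and across linkers. Negative Z-scores can be read as non-binding.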
# Neu5Ac(a2-3)Gal(b1-4)Glc = target: Neu5Ac(a2-3)Gal(b1-4)Glc
# In short: as §1
# [2] = target: Neu5Ac(a2-3)Gal(b1-4)GlcNAc
# In short: as §1
# [3] = target: Neu5Ac(a2-3)Gal(b1-4)GlcNAc(b1-2)Man
# In short: as §1
# [4] = target: Neu5Ac(a2-3)Gal(b1-4)GlcNAc(b1-2)Man(a1-3)[GlcNAc(b1-4)][Neu5Ac(a2-3)Gal(b1-4)GlcNAc(b1-2)Man(a1-6)]Man(b1-4)GlcNAc(b1-4)GlcNAc
# In short: as §1
# [5] = target: Neu5Ac(a2-3)Gal(b1-4)GlcNAc(b1-2)Man(a1-3)[Neu5Ac(a2-3)Gal(b1-4)GlcNAc(b1-2)Man(a1-6)]Man(b1-4)GlcNAc(b1-4)GlcNAc
# In short: as §1
# [6] = target: Neu5Ac(a2-3)Gal(b1-4)GlcNAc(b1-2)Man(a1-3)[Neu5Ac(a2-3)Gal(b1-4)GlcNAc(b1-2)Man(a1-6)]Man(b1-4)GlcNAc(b1-4)[Fuc(a1-6)]GlcNAc
# In short: as §1
# [7] = target: Neu5Ac(a2-3)Gal(b1-4)GlcNAc(b1-2)Man(a1-3)[Neu5Ac(a2-6)Gal(b1-4)GlcNAc(b1-2)Man(a1-6)]Man(b1-4)GlcNAc(b1-4)GlcNAc
# In short: as §1
# [8] = target: Neu5Ac(a2-3)Gal(b1-4)GlcNAc(b1-2)[Neu5Ac(a2-3)Gal(b1-4)GlcNAc(b1-4)]Man(a1-3)[GlcNAc(b1-4)][Neu5Ac(a2-3)Gal(b1-4)GlcNAc(b1-2)[Neu5Ac(a2-3)Gal(b1-4)GlcNAc(b1-6)]Man(a1-6)]Man(b1-4)GlcNAc(b1-4)GlcNAc
# In short: as §1
# [9] = target: Neu5Ac(a2-3)Gal(b1-4)GlcNAc(b1-2)[Neu5Ac(a2-3)Gal(b1-4)GlcNAc(b1-4)]Man(a1-3)[GlcNAc(b1-4)][Neu5Ac(a2-3)Gal(b1-4)GlcNAc(b1-4)Man(a1-6)]Man(b1-4)GlcNAc(b1-4)GlcNAc
# In short: as §1
# [10] = target: Neu5Ac(a2-3)Gal(b1-4)GlcNAc(b1-2)[Neu5Ac(a2-3)Gal(b1-4)GlcNAc(b1-6)]Man(a1-6)[Neu5Ac(a2-3)Gal(b1-4)GlcNAc(b1-2)Man(a1-3)][GlcNAc(b1-4)]Man(b1-4)GlcNAc(b1-4)GlcNAc
# In short: as §1
# [11] = target: Neu5Ac(a2-3)Gal(b1-4)GlcNAc(b1-3)Gal
# In short: as §1
# [12] = target: Neu5Ac(a2-3)Gal(b1-4)GlcNAc(b1-3)Gal(b1-3)GlcNAc
# In short: as §1
# [13] = target: Neu5Ac(a2-3)Gal(b1-4)GlcNAc(b1-3)Gal(b1-4)GlcNAc
# In short: as §1
# [14] = target: Neu5Ac(a2-3)Gal(b1-4)GlcNAc(b1-3)Gal(b1-4)GlcNAc(b1-2)Man(a1-3)[Neu5Ac(a2-3)Gal(b1-4)GlcNAc(b1-3)Gal(b1-4)GlcNAc(b1-2)Man(a1-6)]Man(b1-4)GlcNAc(b1-4)GlcNAc
# In short: as §1
# [15] = target: Neu5Ac(a2-3)Gal(b1-4)GlcNAc(b1-3)Gal(b1-4)GlcNAc(b1-3)Gal(b1-4)GlcNAc
# In short: as §1
# [16] = target: Neu5Ac(a2-3)Gal(b1-4)GlcNAc(b1-3)Gal(b1-4)GlcNAc(b1-3)Gal(b1-4)GlcNAc(b1-2)Man(a1-3)[Neu5Ac(a2-3)Gal(b1-4)GlcNAc(b1-3)Gal(b1-4)GlcNAc(b1-3)Gal(b1-4)GlcNAc(b1-2)Man(a1-6)]GalNAc
# In short: as §1
# [17] = target: Neu5Ac(a2-3)Gal(b1-4)GlcNAc(b1-3)Gal(b1-4)GlcNAc(b1-3)GalNAc
# In short: as §1
# [18] = target: Neu5Ac(a2-3)Gal(b1-4)GlcNAc(b1-3)Gal(b1-4)GlcNAc(b1-3)[Neu5Ac(a2-3)Gal(b1-4)GlcNAc(b1-3)Gal(b1-4)GlcNAc(b1-6)]GalNAc
# In short: as §1
# [19] = target: Neu5Ac(a2-3)Gal(b1-4)GlcNAc(b1-3)Gal(b1-4)GlcNAc(b1-6)[Gal(b1-3)]GalNAc
# In short: as §1
# [20] = target: Neu5Ac(a2-3)Gal(b1-4)GlcNAc(b1-3)Gal(b1-4)[Fuc(a1-3)]GlcNAc
# In short: as §1
# [21] = target: Neu5Ac(a2-3)Gal(b1-4)GlcNAc(b1-3)GalNAc
# In short: as §1
# [22] = target: Neu5Ac(a2-3)Gal(b1-4)GlcNAc(b1-3)[Neu5Ac(a2-3)Gal(b1-4)GlcNAc(b1-6)]GalNAc
# In short: as §1
# [23] = target: Neu5Ac(a2-3)Gal(b1-4)GlcNAc(b1-6)GalNAc
# In short: as §1
# [24] = target: Neu5Ac(a2-3)Gal(b1-4)GlcNAc(b1-6)[Gal(b1-3)]GalNAc
# In short: as §1
# [25] = target: Neu5Ac(a2-3)Gal(b1-4)GlcNAc(b1-6)[Neu5Ac(a2-3)Gal(b1-3)]GalNAc
# In short: as §1
# [26] = target: Neu5Ac(a2-3)Gal(b1-4)GlcNAc6S
# In short: as §1
# [27] = target: Neu5Ac(a2-3)Gal(b1-4)[Fuc(a1-3)]GlcNAc
# In short: as §1
# [28] = target: Neu5Ac(a2-3)Gal(b1-4)[Fuc(a1-3)]GlcNAc(b1-2)Man
# In short: as §1
# [29] = target: Neu5Ac(a2-3)Gal(b1-4)[Fuc(a1-3)]GlcNAc(b1-3)Gal
# In short: as §1
# [30] = target: Neu5Ac(a2-3)Gal(b1-4)[Fuc(a1-3)]GlcNAc(b1-3)Gal(b1-4)GlcNAc
# In short: as §1
# [31] = target: Neu5Ac(a2-3)Gal(b1-4)[Fuc(a1-3)]GlcNAc(b1-3)Gal(b1-4)[Fuc(a1-3)]GlcNAc(b1-3)Gal(b1-4)[Fuc(a1-3)]GlcNAc
# In short: as §1
# [32] = target: Neu5Ac(a2-3)Gal(b1-4)[Fuc(a1-3)]GlcNAc(b1-3)GalNAc
# In short: as §1
# [33] = target: Neu5Ac(a2-3)Gal(b1-4)[Fuc(a1-3)]GlcNAc(b1-6)[Gal(b1-3)]GalNAc
# In short: as §1
# [34] = target: Neu5Ac(a2-3)Gal(b1-4)[Fuc(a1-3)]GlcNAc(b1-6)[Neu5Ac(a2-3)Gal(b1-3)]GalNAc
# In short: as §1
# [35] = target: Neu5Ac(a2-3)Gal(b1-4)[Fuc(a1-3)]GlcNAc6S
# In short: as §1
# [36] = target: Neu5Ac(a2-3)Gal6S(b1-4)GlcNAc
# In short: as §1
# [37] = target: Neu5Ac(a2-3)Gal6S(b1-4)[Fuc(a1-3)]GlcNAc
# In short: as §1
binder,measurement,setting,value
B1,glycan array binding signal (z-score),[1],-0.178
same,glycan array binding signal (z-score),Neu5Ac(a2-3)Gal(b1-4)Glc,5.24
same,glycan array binding signal (z-score),[2],-0.236
same,glycan array binding signal (z-score),[3],2.39
same,glycan array binding signal (z-score),[4],-0.086
same,glycan array binding signal (z-score),[5],-0.261
same,glycan array binding signal (z-score),[6],-0.111
same,glycan array binding signal (z-score),[7],-0.365
same,glycan array binding signal (z-score),[8],-0.266
same,glycan array binding signal (z-score),[9],-0.238
same,glycan array binding signal (z-score),[10],-0.331
same,glycan array binding signal (z-score),[11],-0.277
same,glycan array binding signal (z-score),[12],-0.297
same,glycan array binding signal (z-score),[13],-0.176
same,glycan array binding signal (z-score),[14],0.109
same,glycan array binding signal (z-score),[15],-0.178
same,glycan array binding signal (z-score),[16],-0.057
same,glycan array binding signal (z-score),[17],-0.304
same,glycan array binding signal (z-score),[18],-0.203
same,glycan array binding signal (z-score),[19],-0.345
same,glycan array binding signal (z-score),[20],-0.261
same,glycan array binding signal (z-score),[21],-0.104
same,glycan array binding signal (z-score),[22],-0.174
same,glycan array binding signal (z-score),[23],-0.195
same,glycan array binding signal (z-score),[24],-0.284
same,glycan array binding signal (z-score),[25],-0.264
same,glycan array binding signal (z-score),[26],-0.284
same,glycan array binding signal (z-score),[27],-0.209
same,glycan array binding signal (z-score),[28],-0.354
same,glycan array binding signal (z-score),[29],-0.332
same,glycan array binding signal (z-score),[30],0.031
same,glycan array binding signal (z-score),[31],-0.141
same,glycan array binding signal (z-score),[32],0.843
same,glycan array binding signal (z-score),[33],-0.247
same,glycan array binding signal (z-score),[34],0.387
same,glycan array binding signal (z-score),[35],-0.374
same,glycan array binding signal (z-score),[36],-0.175
same,glycan array binding signal (z-score),[37],-0.298
